Hit rate of the full screen: of about 390,000 compounds, about 150 (0.038%) were called active. Inconclusive results, whose numbers are uncertain, are shown with a selection of clear calls. Calls come from the whole dose curve; as a rule, active = well fitted inhibition curve with a large enough effect; inconclusive = small, poorly fitted or top-dose-only effect; inactive = no such curve, though single readings can be large or run the other way. Where the call is inconclusive, the potency comes from a doubtful curve fit.
The compounds below were run against Regulator of G-protein signaling 4 (Homo sapiens) (UniProt P49798) (assay: Inhibitors of Regulator of G Protein Signaling (RGS) 4: qHTS). Conditions: Transcreener GDP fluorescence polarization, RGS4-accelerated GTP hydrolysis; series mostly up to 114 µM.
UniProt P49798, sequence (P49798 whole entry, looked up): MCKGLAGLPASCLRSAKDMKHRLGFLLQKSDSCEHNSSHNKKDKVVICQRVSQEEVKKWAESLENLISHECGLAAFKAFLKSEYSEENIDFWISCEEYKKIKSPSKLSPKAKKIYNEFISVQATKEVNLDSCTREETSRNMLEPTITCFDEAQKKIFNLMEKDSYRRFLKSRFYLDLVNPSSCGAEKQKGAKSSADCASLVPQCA
Summary of the method: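 MLSMR compounds (23 nl, pin-transferred) preincubated 10 min at room temperature with a 500nM (2x) first reagent, then RGS4 at 900nM (2x) plus Transcreener GDP mix added; fluorescence polarization (620/688 nm) read before and after 90 min at 30 °C.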
Note: nearly all actives have a fitted effect of over 75% in size.
Potency is the fitted concentration of half-maximal effect; tags give direction and shape of the fitted curve.

SMILES | Potency
Cc1ccc(C2(c3ccc(C)cc3)CC2C(=O)Nc2ccc([N+](=O)[O-])cc2O)cc1 (stereo not given) | inconclusive: 50.1 µM [inhibitor, partial curve, poor fit]
CCCCNC(=O)C1(NC(=O)Nc2ccc(C)cc2)CCCCC1 | inconclusive: 56.2 µM [inhibitor, partial curve, poor fit]
CCOC(=O)CSc1nc(N)nc(C)c1Cl | inconclusive: 20 µM [inhibitor, full curve, poor fit]
O=C(c1ccccc1F)N1CCN(c2ccc([N+](=O)[O-])c3ncccc23)CC1 | inconclusive: 89.1 µM [inhibitor, single point]
COC(=O)c1ccccc1NC(=S)NC(=O)c1ccccc1C | inconclusive: 79.4 µM [inhibitor, partial curve, poor fit]
CCC(=O)Nc1ccc2oc(-c3cccnc3)nc2c1 | inactive
Cc1ccc(S(=O)(=O)CCSC(=N)N)cc1 | inconclusive: 89.1 µM [inhibitor, single point]
COc1ccc(Cl)cc1/C=C/c1ccc2cccc(O)c2n1 | inactive
COc1ccc(NC(=O)CCc2nnc3n(Cc4ccccc4Cl)c(=O)c4ccccc4n23)cc1 | inactive
O=C1[C@H]2[C@@H](c3ccc(F)cc3)N3C(=O)N(c4ccc(Br)cc4)C(=O)[C@@]3(Cc3ccc(Cl)cc3)[C@H]2C(=O)N1C1CCCCC1 | inactive
CC1Cc2cc(/C=C3/SC(=S)NC3=O)ccc2O1 (stereo not given) | inconclusive: 56.2 µM [inhibitor, partial curve, poor fit]
COc1cccc(C(=O)Nc2nnc(-c3ccc(Cl)cc3)o2)c1 | inactive
CCN(CC)c1ccc2c(c1)oc(=O)c1c(Cl)cc(=O)oc12 | inconclusive: 89.1 µM [inhibitor, single point]
CN(CCOc1ccc(C[C@H](Nc2ccccc2C(=O)c2ccccc2)C(=O)O)cc1)c1ccccn1 | inconclusive: 0.844 µM [inhibitor, partial curve, poor fit]
Cc1cc(NC(=S)Nc2ccc(C)c(Cl)c2)n[nH]1 | inconclusive: 112 µM [inhibitor, partial curve, poor fit]
NC(=O)c1sc2nc3c(c(-c4ccco4)c2c1N)CCC3 | inactive
Cc1nn(-c2ccc(Cl)c(Cl)c2Cl)c(=O)c2ccccc12 | inactive
COc1ccc(/C=N/NC(=O)c2ccccc2F)cc1CN1CCN(c2ccc(F)cc2)CC1 | inactive
O=S(=O)(Nc1c(O)ccc2ccccc12)c1cccc2ccccc12 | inconclusive: 79.4 µM [inhibitor, partial curve, poor fit]
O=C(N/N=C/c1cccnc1)c1cccc(NC(=O)c2ccc(Cl)cc2)c1 | inconclusive: 31.6 µM [inhibitor, full curve, poor fit]
CCCN1CCC(=NNc2ccc(C(=O)O)cc2)CC1 | inconclusive: 35.5 µM [inhibitor, partial curve, poor fit]
N#CC1=C2SCN(C3CCCCC3)CN2C(=O)CC1c1c(F)cccc1Cl (stereo not given) | inconclusive: 22.4 µM [inhibitor, full curve, poor fit]
CC(=O)NC(=S)Nc1ccccc1N1CCCCC1 | inconclusive: 50.1 µM [inhibitor, partial curve, poor fit]

SMILES | Potency
CCCCc1c(O)nc2sc3cc(OC)ccc3n2c1=O | inactive
CCc1ccc2c(c1)/C(=C/C(=O)c1cccs1)C(=O)N2 | inconclusive: 44.7 µM [inhibitor, partial curve, poor fit]
CCOC(=O)C1(CCOc2ccccc2)CCN(Cc2cccn2-c2cccnc2)CC1 | inactive
COc1ccc(NS(=O)(=O)c2ccc(N3CCCC3)c(NC(=S)Nc3cccc(C)c3C)c2)cc1 | inconclusive: 89.1 µM [inhibitor, partial curve, poor fit]
Cc1cccc(NC(=S)Nc2ccc(N3CCOCC3)cc2)c1C | inconclusive: 89.1 µM [inhibitor, partial curve, poor fit]
COc1ccccc1-n1c(=S)[nH]c2c(sc(=S)n2-c2ccc(C)cc2C)c1=O | inconclusive: 89.1 µM [inhibitor, partial curve, poor fit]
Cc1cccc(CCNC(=O)c2ccc(CSCc3cccc(Cl)c3)o2)c1 | inactive
O=C(Nc1ccc2nccnc2c1)c1cnccn1 | inconclusive: 89.1 µM [inhibitor, single point]
CCc1ccc(Nc2n[n+](-c3ccccc3)c(-c3ccc(N(CC)CC)cc3)s2)cc1 | inconclusive: 79.4 µM [inhibitor, partial curve, poor fit]
O=C(O)c1ccc(-n2cccc2/C=C2/NC(=O)N(c3cccc(Cl)c3)C2=O)cc1 | inconclusive: 56.2 µM [inhibitor, partial curve, poor fit]
Cc1ccc(OCc2cc(C(=O)N3CCC(C(O)C(C)C)CC3)no2)cc1C (stereo not given) | inactive
CC(=O)OCC1=C(C(=O)O)N2C(=O)[C@@H](NC(=O)Cc3cccs3)[C@H]2SC1 | inconclusive: 18.9 µM [inhibitor, single point]
CCn1c(C)c(C)c2cc(C(=O)NCc3ccc(OC(C)C)cc3)ccc21 | inactive
COc1cccc(Nc2nc(C)nc3c2oc2ccccc23)c1 | inactive
COc1ccc(-c2csc(NC(=O)c3ccccc3NS(=O)(=O)c3ccc(C)cc3)n2)cc1 | inactive
O=C1C=CC(=O)N1CCNc1ncc(C(F)(F)F)cc1Cl | inconclusive: 28.2 µM [inhibitor, full curve, poor fit]
COc1ccc(C2=CC3=C(Br)C(=O)C(C)(OC(=O)C4CCCC4)C(=O)C3=CO2)cc1 (stereo not given) | inconclusive: 39.8 µM [inhibitor, partial curve, poor fit]
COc1ccccc1NC(=O)CSc1nnc(-c2ccccn2)o1 | inactive
CCC(=O)c1ccc(OCc2ccc(C(=O)c3ccccc3)cc2)cc1 | inactive
CCCN(C(=O)Cn1ncc2c1-c1ccccc1OC2)c1cccc(C)c1 | inactive
O=C(CSc1nnc2ccccn12)N1CCc2ccccc2C1 | inactive
COc1ccc(NS(=O)(=O)c2cccc(C(=O)NNC(=O)c3ccc(O)c(Cl)c3)c2)cc1 | inconclusive: 100 µM [inhibitor, single point]
